Laboratory results as given in PubChem BioAssay AID485294 (National Center for Advancing Translational Sciences (NCATS), 2010).
About 150 (0.041%) of roughly 370,000 compounds were called active. The shares of active, inactive and inconclusive entries below differ from those in the screen. The call rests on the fitted dose curve; in most records, active means well fitted inhibition curve with a large enough effect; inconclusive means small, poorly fitted or top-dose-only effect; inactive means flat fitted curve, though single readings scatter. Potencies of inconclusive entries are left out as doubtful fits.

Target: Beta-lactamase (Escherichia coli (strain K12)) (UniProt P00811)
UniProt P00811, sequence (P00811 whole entry, looked up): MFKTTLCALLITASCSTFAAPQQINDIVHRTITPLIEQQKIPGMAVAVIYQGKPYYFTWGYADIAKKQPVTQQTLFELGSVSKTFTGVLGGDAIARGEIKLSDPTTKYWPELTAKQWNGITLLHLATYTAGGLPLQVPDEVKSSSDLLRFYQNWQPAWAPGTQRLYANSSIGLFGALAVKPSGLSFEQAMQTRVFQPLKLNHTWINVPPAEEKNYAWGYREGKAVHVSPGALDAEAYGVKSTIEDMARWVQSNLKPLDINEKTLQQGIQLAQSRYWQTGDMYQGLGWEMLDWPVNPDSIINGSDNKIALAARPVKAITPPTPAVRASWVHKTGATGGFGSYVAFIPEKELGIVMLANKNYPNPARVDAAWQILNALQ
Experiment: qHTS Inhibitors of AmpC Beta-Lactamase (assay with detergent); further: nearly all actives have a fitted effect of over 25% in size;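 on activity change, negative = inhibition: 0% = no-compound wells and -100% = no-enzyme wells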
Conditions: AmpC hydrolysis of nitrocefin, absorbance 480 nm, 0.01% Triton; activity change, negative = inhibition: at 114 µM (top of the series)
How it was run: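 AmpC (5.3 nM in the dispensed reagent) in 20 mM phosphate pH 7.0 with 0.01% (detergent screen) or 0.0001% Triton X-100 was preincubated with compounds for 15 min at room temperature. Nitrocefin was then added from an 800 uM solution, and hydrolysis was followed at 480 nm.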
Potency means the concentration at half of the fitted maximal effect; tags describe the fitted curve by direction and shape.

| Structure (SMILES) | Potency | activity change, negative = inhibition |
| --- | --- | --- |
| COC(=O)C1=C(C)N(Cc2ccccc2)C(=NCc2ccc(OC)cc2)N[C@H]1c1cccc(F)c1 | inconclusive [inhibitor, partial curve, poor fit] |  |
| CN1CCN(C(=O)C23CCC(C)(c4nc5ccccc5nc42)C3(C)C)CC1 (stereo unspecified) | inconclusive [inhibitor, full curve, poor fit] |  |
| CC[C@H](C)[C@@H](NC(=O)O[C@@H]1C(=O)c2cc(Br)ccc2O[C@H]1c1cccc(OC)c1)C(=O)OC | inconclusive [inhibitor, partial curve, poor fit] |  |
| Cc1c(Cl)cccc1N(CC(=O)N1CCCCCC1)S(C)(=O)=O | inconclusive [inhibitor, full curve, poor fit] |  |
| CCCNS(=O)(=O)c1ccc(OCC(=O)NCc2ccc3c(c2)OCO3)cc1 | inconclusive [inhibitor, partial curve, poor fit] |  |
| COc1ccccc1NC(=O)Cn1c(=O)n(-c2cccc(Cl)c2)c(=O)c2c1c1cc(C)ccc1n2C |  | inactive: -5.04% |
| C=CCc1c(C)c(C#N)c2nc3ccccc3n2c1N1CCCCC1 |  | inactive: -3.9% |
| CN(C(=O)C1CC1)C1CCS(=O)(=O)C1 (stereo unspecified) | inconclusive [inhibitor, full curve, poor fit] |  |
| Cc1ccc(N(Cc2cc3ccccc3[nH]c2=O)C(=O)c2cccs2)cc1 | inconclusive [inhibitor, partial curve, poor fit] |  |
| N#Cc1ccc(Cl)cc1NC(=O)CNCc1cccs1 |  | inactive: 2.15% |
| CN(CCC#N)S(=O)(=O)c1ccc2[nH]cc(C(=O)NCCc3ccccc3)c(=O)c2c1 | inconclusive [inhibitor, full curve, poor fit] |  |
| CCOC(=O)CSc1nc(NCc2ccco2)c2ccccc2n1 | inconclusive [inhibitor, single point] |  |
| O=C(NC(=S)Nc1ccccc1[N+](=O)[O-])c1ccco1 | inconclusive [inhibitor, single point] |  |
| CC(NC(=O)NNC(N)=S)(C(F)(F)F)C(F)(F)F |  | inactive: 3.96% |
| O=C(CCn1nc(-c2ccc(Cl)cc2)ccc1=O)NCc1ccccn1 | inconclusive [inhibitor, partial curve] |  |
| Cc1ccccc1Nc1nnc(SCc2cc([N+](=O)[O-])cc3c2OCOC3)s1 |  | inactive: 3.09% |
| Cc1ccc2nc(-c3ccc(O)c(O)c3)cn2c1 |  | inactive: -2.29% |
| CC(C)(C)CN1CCN(CCCc2ccccc2)C(CCO)C1 (stereo unspecified) | inconclusive [inhibitor, full curve, poor fit] |  |
| COc1ccc(NC(=O)N2CCCC(c3nc(-c4ccc(OC)cc4)no3)C2)cc1 (stereo unspecified) |  | inactive: 1.71% |
| NCCCC[C@@H]1NC(=O)c2cc([N+](=O)[O-])cc(I)c2SC[C@@H](C(N)=O)NC(=O)[C@H](CCC(N)=O)NC1=O | inconclusive [inhibitor, single point] |  |
| COc1ccc(C(=O)Nc2cccc3nc(C)ccc23)cc1OC | inconclusive [inhibitor, full curve, poor fit] |  |
| CN(C)CCNC(=O)NC(=O)c1ccc(Cl)cc1 | inconclusive [inhibitor, partial curve] |  |

| Structure (SMILES) | Potency | activity change, negative = inhibition |
| --- | --- | --- |
| COc1cccc(NC(=O)CN(C)C(=O)/C=C/c2ccc3ccccc3n2)c1 | inconclusive [inhibitor, full curve, poor fit] |  |
| O=C(C1CCN(S(=O)(=O)c2ccccc2F)CC1)N1CCN(Cc2ccc3c(c2)OCO3)CC1 |  | inactive: -9.97% |
| O=C(Oc1ccc2c(-c3ccccc3)cc(=O)oc2c1)c1cccs1 | inconclusive [inhibitor, full curve, poor fit] |  |
| COc1ccc(NC(=O)c2oc3c(c2C)-c2nn(Cc4ccccc4Cl)cc2CC3)cc1OC |  | inactive: 20.6% |
| Cc1cc(-c2nn3c(-c4ccccc4)nnc3s2)c2ccccc2n1 |  | inactive: -0.925% |
| Cc1c(/C=N/N2C(=O)C3C4C=CC(C4)C3C2=O)c2ccccc2n1C (stereo unspecified) | inconclusive [inhibitor, full curve, poor fit] |  |
| CC(C)(C)C(=O)NC1CC2CCCC(C1)N2C(=O)Nc1ccccc1 (stereo unspecified) |  | inactive: 4.52% |
| O=C(Nc1ccccc1Cl)NC1(C(=O)NCCCN2CCOCC2)CCCCC1 |  | inactive: -8.37% |
| CC(C)OCCCn1c(SCC(=O)Nc2ccccc2C(F)(F)F)nc2nccnc2c1=O | inconclusive [inhibitor, full curve, poor fit] |  |
| CCOC(=O)C1=C(CN2CCN(c3cccc(OC)c3)CC2)NC(=O)NC1c1ccc(OC)cc1 (stereo unspecified) |  | inactive: 13.2% |
| CCOC(=O)c1ccc(NC(=O)N2CCN(CCc3ccccc3)CC2)cc1 | inconclusive [inhibitor, full curve, poor fit] |  |
| Nc1c(S(=O)(=O)c2ccccc2)c2nc3ccccc3nc2n1C1CC1 | inconclusive [inhibitor, single point] |  |
| CCn1c(C(C)NC(C)=O)nc2ccccc21 (stereo unspecified) | inconclusive [inhibitor, full curve, poor fit] |  |
| CCCOc1ccc(N2C(=O)CC(NCCc3ccc(S(N)(=O)=O)cc3)C2=O)cc1 (stereo unspecified) | inconclusive [inhibitor, full curve, poor fit] |  |
| CCCCN(C(=O)c1ccco1)c1c(N)n(CCC)c(=O)[nH]c1=O | inconclusive [inhibitor, single point] |  |
| COc1ccccc1N1C(=O)CC(Sc2nccc(C)n2)C1=O (stereo unspecified) | inconclusive [inhibitor, partial curve] |  |
| CC1=C(C(=O)Nc2ccccc2C)C(c2ccc(C)o2)N2C(=O)CSC2=N1 (stereo unspecified) | inconclusive [inhibitor, full curve, poor fit] |  |
| COc1cc(/C=C/c2ccc3cccc(O)c3n2)cc(Br)c1OC |  | inactive: -2.04% |
| CCC(Cc1ccccc1)NC(=O)/C=C/c1ccco1 (stereo unspecified) | inconclusive [inhibitor, partial curve, poor fit] |  |
| O=C(O)c1ccc2[nH]c3c(c2c1)CCCC3 | inconclusive [inhibitor, full curve, poor fit] |  |
| Nc1ccc2c(c1)C(=O)Cc1ccccc1S2 | inconclusive [inhibitor, single point] |  |
| Cc1ccc(-c2nnc(CSc3nnc(COc4ccccc4)n3-c3ccccc3)o2)cc1 | inconclusive [inhibitor, single point] |  |

| Structure (SMILES) | Potency | activity change, negative = inhibition |
| --- | --- | --- |
| COc1cccc(C(=O)OCC(=O)c2[nH]c(C)c(C(C)=O)c2C)c1 | inconclusive [inhibitor, partial curve, poor fit] |  |
| CCOc1ccc(-c2cn3c(n2)sc2cc(C(=O)NCCCN(CC)CC)ccc23)cc1 |  | inactive: 2.68% |
| Cc1cccc(CNC(=O)Cc2ccc(NC(=O)N3CCCCc4ccccc43)cc2)c1 |  | inactive: 1.42% |
| c1ccc2c(NCC3CCCO3)nc(-c3ccncc3)nc2c1 (stereo unspecified) | inconclusive [inhibitor, partial curve, poor fit] |  |
| Cc1c(NC(=O)c2ccc(Cl)c(S(=O)(=O)N3CCOCC3)c2)c(=O)n(-c2ccccc2)n1C | inconclusive [inhibitor, partial curve] |  |
| CC(=O)C1=C(C)NC(SCc2ccc(C#N)cc2)=C(C#N)C1c1ccco1 (stereo unspecified) | inconclusive [inhibitor, single point] |  |
| NS(=O)(=O)c1ccc(NC(=O)CN2CCN(Cc3ccccc3)CC2)cc1 | inconclusive [inhibitor, full curve, poor fit] |  |
| CCC(C)(C(=O)NC1CCCCC1)N(C(=O)c1ccccn1)c1ccccc1 (stereo unspecified) | inconclusive [inhibitor, single point] |  |
| COc1ccccc1N(CN1CCCC1=O)C(=O)COc1ccccc1 | inconclusive [inhibitor, full curve] |  |
| Cc1cc(NC(=O)c2cc3ccccc3o2)ccc1NC(=O)c1ccccc1 | inconclusive [inhibitor, partial curve, poor fit] |  |
| O=C(c1cc(COc2ccc(F)cc2Cl)on1)N1CCc2sccc2C1 |  | inactive: -1.31% |
| C=C1C(C(=O)N2CCN(C)CC2)C1C(=O)N1CCN(C)CC1 (stereo unspecified) | inconclusive [inhibitor, partial curve] |  |
| O=C(CN1CCN(CCO)CC1)Nc1ccccc1 | inconclusive [inhibitor, partial curve, poor fit] |  |
| COc1ccc(S(=O)NC2CCCCC2)c(OC)c1C (stereo unspecified) | inconclusive [inhibitor, full curve, poor fit] |  |
| Cn1c(=O)c(-[n+]2ccccc2)c([O-])c2ccccc21 |  | inactive: -0.837% |
| Cc1cc(C(=O)NNC(=O)/C=C/c2ccccc2Cl)c(C)o1 | inconclusive [inhibitor, partial curve] |  |
| Cc1ccccc1C(=O)NNC(=O)c1ccc(Br)cc1 | inconclusive [inhibitor, partial curve] |  |
| CCOc1cc(/C=C(\C#N)C(=O)Nc2ccccn2)ccc1O | inconclusive [inhibitor, partial curve, poor fit] |  |
| CC1CCc2c(nc3nc[nH]n3c2=O)C1 (stereo unspecified) |  | inactive: 0.0075% |
| COC(=O)c1ccc(Nc2cc(C)nc3nc(C)nn23)cc1 | inconclusive [inhibitor, partial curve] |  |
| CCCC(=NCCc1c(C)[nH]c2ccccc12)C1=C(O)CC(c2ccccc2)CC1=O (stereo unspecified) |  | inactive: -6.9% |
| CCOc1ccc(-n2c(SCC(=O)Nc3ccccc3C)n[nH]c2=O)cc1 | inconclusive [inhibitor, full curve, poor fit] |  |
